Test results published in the RNAGym collection of RNA variant scans (doi:10.7554/elife.90254).
Read counts are not given, so values of variants with three or more changes are uncertain.

B1: LINE1-mini (parent)
chain: GGCAGAGCUCAACACAGCGUGGCAAAGUGGCUGUGGCUAGACUGCC

Variants of: B1
Assay: self-cleavage, relative activity (ratio to wild type); higher = more cleavage; in vitro, sequencing; the parent is a self-cleaving ribozyme

| Variant | self-cleavage |
| --- | --- |
| C8U C10A G30U | 0.02 |
| C13A C23U G27U G36A A39U | 0.03 |
| G1U A11G A16U | 0.01 |
| G2U A24U G27U | 0.03 |
| C18A G21U C23G A26U U32A C37U | 0.09 |
| C18U G33U G44C | 0.04 |
| G5A C13G A24G | 0.21 |
| G5A G17U U43C | 0.03 |
| G1C C13A A14G A41C | 0 |
| C8G C10A C13U C18G G22U | 0.03 |
| C3G U28A C31A G36C U38A U43A | 0.12 |
| C15G C31A G40C | 0.02 |
| C3U A16C U32G | 0.08 |
| G5A A24G G27C | 0.16 |
| C13U A14U C31G | 0.06 |
| C3A A12U G22U G29C | 0.19 |
| G2U C13U U28C A41U U43G | 0.04 |
| A6C C15G A16G G17U G22A A24U C31U | 0.02 |
| G29A G30U G44U | 0.37 |
| A6U A12C A39C U43A | 0.01 |
| G7U A24C U28C C31A G33C | 0.04 |
| C10A C18A U28C G30A | 0.03 |
| G1A A6C C23U A39C G40C | 0.03 |
| C8G A26U G35U | 0.02 |

| Variant | self-cleavage |
| --- | --- |
| C13G G21C G33U G35A | 0.01 |
| G19U A25C U32G | 0.18 |
| U32A G33U A41G | 0 |
| A12U C18U U20C A26G | 0.04 |
| G1U G35U A39G | 0.03 |
| C3G G5U U28A | 0.16 |
| A14G G33C A39U | 0.05 |
| A6G U9G C23A G29A C42G G44U | 0.01 |
| C10A A16C C46A | 0.01 |
| A11U C23A U38G | 0.01 |
| G7U C37A C42A C45U | 0.02 |
| G7U G19U U28G | 0.03 |
| C8A G17U G19C U32A C46A | 0.09 |
| C8U C13A U34G | 0.85 |
| A4G G22C G30U | 0.81 |
| G2C G7U A11C C23G | 0.06 |
| G2C G29U C45A | 0.62 |
| C3U U9C G30A | 0.01 |
| C3U G5A G30A A41C | 0.11 |
| C3G A14G G40U | 0.09 |
| U9G A16U G36C C46A | 0.02 |
| C10A G36U C46A | 0.06 |
| C3U C10G G30C C31G | 0 |
| U20G A24C A26U | 0.05 |

| Variant | self-cleavage |
| --- | --- |
| G36C G44U C45U | 0.01 |
| A14C G27C C42U | 0.16 |
| A24C U43A C46U | 0.07 |
| C3U A12C C45A | 0.05 |
| G1U A12G C42U | 0.02 |
| G21U G36C C45A | 0.02 |
| A4C G17U G27C C37G C42U | 0.01 |
| C10G G22U A26U G29U G40C | 0.01 |
| A6U G19U U38C A41G | 0.12 |
| G5A G27U A39G G40A U43A | 0.09 |
| G1A G2C G22A G30C C31U A39U | 0.13 |
| G2U C8U A14U G17U U28C | 0.06 |
| A14U G27U U28G C31U | 0.02 |
| C3G A14G C42A | 0.09 |
| U20A G22U G35U C45A C46A | 0.09 |
| G5A C23A G27A U28A | 0.02 |
| A4G A12U A16C A39C | 0.01 |
| C18G U34C G40C C46G | 0.04 |
| C3A A6U C37U | 0.11 |
| G7U C10A C45G | 0.02 |
| C23A A25C A26G C42A C46U | 0.04 |
| G2A A11C U20G G27C G29A | 0.01 |
| C10G A16G G21A | 0.21 |
| A11C G17U G22A | 0.03 |

| Variant | self-cleavage |
| --- | --- |
| A24U G27C G36C U38C | 0.15 |
| C10A A12G C13G C23U G27A | 0.01 |
| G5A A14U U34G G35A G44A | 0.01 |
| C8G A11C G33U C37G U38G A39G C46U | 0 |
| G2U C10A U20C G27A C31G C37U | 0.01 |
| G5A A12G C31U G36A C45A | 0.05 |
| C10A A24G U38G | 0.08 |
| G1A A16G U32A | 0.06 |
| G5A C10A C31G | 0.03 |
| C15G U28G G30C G35U C37G C42U C45G | 0 |
| A6G G27A G29A C31G | 0.05 |
| C8A U28G G35A A41C | 0.14 |
| A11G U20C C45A | 0.07 |
| A16G G27C C45G | 0.07 |
| G1C A4G G36C U38G U43A | 0.01 |
| A4U A12U G22A G27U U28G G33A | 0.02 |
| C18A G21U U38G C46U | 0.04 |
| C13A A26U U34A | 0.03 |
| G2A C3U C18U G35C U38C G40C | 0.03 |
| G1C G5A U20G | 0.01 |
| G5A G29U G30U | 0.04 |
| G1A G7U C8G G27A | 0.77 |
| G7A A24G G40U C46U | 0.04 |
| G2C A14U G35A G36U C46G | 0.09 |

| Variant | self-cleavage |
| --- | --- |
| G17U G27U C31A | 0.88 |
| G1A C3A C10U A11U A16U G36A | 0.12 |
| C15G C18G U43A | 0.06 |
| C10G A12G A14G G19C C23A U34A | 0 |
| G19A A26U A41C | 0.05 |
| U9C G22A U32C | 0.02 |
| G5C G21U C42G | 0.27 |
| C8A C18U C23G C42A C45A | 0.56 |
| G2C A6U C10A A25C C42U G44A C45U | 0.01 |
| C13A G30A C31G C42G | 0.04 |
| G1A C3U C10A A14G G17C | 0.12 |
| A6U C10G U20G | 0.04 |
| A14G U38G C45A | 0.05 |
| C23G A25C U32G | 0.38 |
| C13U G17U U32C | 0.06 |
| G17U G21U C31U G44A | 0.04 |
| G2A C23A A26G A39U U43C | 0.12 |
| C13G A14U C31U A39C | 0.04 |
| A26U G33C U38A G44U | 0.03 |
| G5A A6G A25U | 0.1 |
| C10G G30C C31A | 0.13 |
| A4C C18G C45A | 0.06 |
| A6C G7U U20G C46A | 0.01 |
| G2C G33U C37U U43C | 0.02 |

| Variant | self-cleavage |
| --- | --- |
| G5A G7C C8G A11U | 0.06 |
| C3U A6U U34A C37G | 0.02 |
| G5U A6U C37A A41U | 0.1 |
| C3U G21U C42G | 0.12 |
| G29C C31A G35C C45A | 0.02 |
| U9A U20C A39C | 0.02 |
| A11C G19A A39C | 0.01 |
| U9G C10A G33C G40U | 0.01 |
| G2A A6C G7U C10A C18A | 0.04 |
| G7U C10U A11U U34A | 0.02 |
| C15A G30U C31A G33U C37G G44U | 0.04 |
| G17C A25U C31U U43A | 0.01 |
| G5A G17C C18A U38C | 0.03 |
| G7C C8A G40A C45U | 0.05 |
| G2C U9A G36C U43A | 0.04 |
| A12G U34A G44A | 0.02 |
| C8U C13G C18A G19U | 0.21 |
| A12U C13A A25U | 0.08 |
| G5C A6G G7A C31A G35C | 0.09 |
| A11U A25G C31G U34A G36A A41U | 0.01 |
| U34C G35U G40C C45A | 0 |
| C3U C15A A16G G44U C45U | 0.09 |
| C10A G22C U28A G35C | 0.01 |
| G5U C10U C18A U34A | 0.02 |

| Variant | self-cleavage |
| --- | --- |
| G2C A4U C10G G22A A25G U34A G36A | 0.02 |
| G2A G7A A12C C23A U32A G36C G40C | 0.01 |
| A6G A11U A16C G36C | 0.01 |
| G1C C23A A24C G33U | 0.02 |
| G22A U32G C45U | 0.37 |
| C23U G29U U34G | 0.28 |
| C3A G19C G21A G27U C45U | 0.19 |
| C3G G30C U43C | 0.05 |
| U20G A26U C46A | 0.08 |
| G1C G19U U32G | 0.02 |
| G7C C13G G21A | 0.1 |
| A4U C31U C45G | 0.07 |
| U9C G21U G30C C31U G33U C42A | 0.02 |
| U9G C10A C18U C46G | 0 |
| U20G A24G U34C | 0.03 |
| C8G A14U G21U | 0 |
| C18A G21A U28G G35C G44C | 0.01 |
| G2U A4C C13U | 0 |
| A6G C13A G19C | 0.1 |
| G2U C3A A12G A16C G21C G22U U32G A41C | 0.02 |
| C10A G17C U28A | 0.06 |
| G1U C8A C15U U28A C31G U38A C46G | 0.02 |
| C10U A11G C13G G17A G29U | 0.02 |
